PubChem BioAssay AID662 (National Center for Advancing Translational Sciences (NCATS), 2007)
The whole screen tested about 71,000 compounds, of which about 1,800 (2.5%) were called active. This list was built around the results that the source calls inconclusive (neither active nor inactive); the mix of calls is not that of the screen. Calls follow the shape of the dose curve; as a rule, active = well fitted activation curve with a large enough effect in the signal ratio, with a control signal flat (not every such curve was filed as active); inconclusive = small, poorly fitted or top-dose-only effect, or effect the other way, or a change in a side signal; inactive = flat fitted curve, though single readings scatter; the % refers to the signal ratio. Potencies of inconclusive entries are doubtful fits and often do not repeat.

Assay: Cell signaling CRE-BLA (Fsk stim); as to activity change, negative = inhibition: % of control where 0% means no effect
Settings: CHO CRE-bla reporter (cAMP response element driving beta-lactamase), forskolin EC10, beta-lactamase ratio; activity change, negative = inhibition: at 38.2 µM (top of the series) unless noted
Source text: NIH Molecular Libraries Screening Centers Network [MLSCN]
NIH Chemical Genomics Center [NCGC]
Assay Provider: Marshall W. Nirenberg, U.S. National heart lung & blood institute
Memories persist for different lengths of time, from seconds or minutes to a lifetime. There are two kinds of memory: short-term memory (STM) and long-term memory (LTM). STM lasts for minutes to hours, which maybe mediated by modifications of molecules involved in synaptic functions. LTM lasts for days or longer, and may be due to the formation of new synapses or restructuring of existing synapses. LTM, but not STM, requires gene transcription and synthesis of proteins. CREB (cyclic-AMP Responsive Element Binding Protein) is one of the candidates plays an important role for enhancement of some types of LTM. CREB, a family of transcription factors, regulates the transcription of genes containing cAMP Responsive Elements (CRE). CRE is a nucleotide sequence often found in the promoter regions of genes that are binding sites for CREB.
Using a beta-lactamase reporter-gene under control of cAMP responsive element, a cell-based assay [CellSensor(TM) CRE-bla CHO developed by Invitrogen Corp.] was used to measure forskolin-induced signaling. Library compounds were measured for their ability to modulate positively or negatively the action of EC10 NKH 477, a water soluble forskolin, on reporter gene activity. Compounds were screened in a titration series in 1536-well format. Positive and negative modulators were identified based on the AC50 values derived from the screening data.
NCGC Assay Protocol Summary
2000 cells/5uL in Opti-MEM medium containing 0.5% dialyzed FBS, 0.1 mM NEAA, 1 mM sodium pyruvate and 10 mM HEPES was dispensed into 1536-well plates and cells were cultured at 37 degrees Celsius overnight. […] And then the plates were incubated at 37 degrees Celsius for 3 hours. 1 uL of CCF4-dye mixture was added to each well. After incubated at room temperature for 2 hours the plates were measured on an EnVision plate reader at Excitation 405nm, Emission1=460nm and Emission 2=530nm. The %Activity was determined from the ratio of 460nm/530nm.
Keywords: NIH Roadmap, MLSCN, MLSMR, qHTS, NCGC, CRE, beta-lactamase reporter-gene assay.
Potency is read from the fitted curve at half-maximal effect; tags tell the direction and shape of the fitted curve.

SMILES | activity change, negative = inhibition | Potency
Cn1cc(C(=O)NC2CCCCCCC2)c(=O)c2cc(S(=O)(=O)N3CCCC3)ccc21 | inconclusive: 6.05% | –
CSc1nnc2c3cc(C)ccc3n(Cc3ccccc3)c2n1 | – | active: 2 µM
CCSc1nc2ccccc2n1Cc1nc(N)nc(N(C)C)n1 | – | inconclusive: 12.6 µM [rising, partial curve]
CCCCN(C(=O)NC(=O)Nc1ccccc1OC)S(C)(=O)=O | inconclusive: -0.877% | –
COC(=O)c1nnn(-c2nonc2N)c1CN1CCc2ccccc21 | inconclusive: -9.17% | –
O=C(O)CC1SC(=Nc2ccccc2)N(c2ccccc2)C1=O (centres undefined) | inconclusive: -5.89% | –
O=C(NCc1ccco1)c1cc(-c2cccs2)on1 | inconclusive: 10.2% | –
COCC(C)OC(=O)C(C#N)c1nc2ccccc2nc1N1CCN(Cc2ccccc2)CC1 (centres undefined) | – | inconclusive: 25.1 µM [falling, single point]
O=C(Nc1ccccc1C(=O)OCc1nnc(-c2ccccc2)o1)c1ccco1 | – | inconclusive: 6.31 µM [rising, partial curve]
O=C(O)CCN1C(=O)CC2(CCCCC2)C1=O | inconclusive: 14.6% | –
COc1ccc(C(=O)CSc2nnc(-c3ccco3)n2CC2CCCO2)cc1 (centres undefined) | – | inconclusive: 0.1 µM [falling, single point]
CC1CCN(C(=O)COC(=O)c2cc3ccccc3cc2O)CC1 | inactive: -11.7% | –
Cc1cc(C)c2nc(-c3ccccn3)cc(C(=O)Nc3cc(C)on3)c2c1 | inactive: -5.58% | –
COc1ncc2nc(-c3cc(F)cc(F)c3)c(=O)n(CCc3ccccc3)c2n1 | – | active: 10 µM
CCOc1ccc(-c2cc(NC(=O)Cn3ncc4c3-c3ccccc3OC4)on2)cc1OCC | – | inconclusive: 10 µM [rising, partial curve]
Cc1ccc2c(c1)N(CC(=O)NC1CCCCC1C)C(=O)CO2 (centres undefined) | inactive: 17.4% | –
COCc1cc(C)n(CC(=O)Nc2ccccc2C(=O)OC)c(=O)c1C#N | inactive: 4.19% | –
NC(=O)c1nc(N2CCOCC2)nc(N2CCOCC2)n1 | inactive: 0.432% | –
COc1ccc(C2C(C(=O)NCc3ccccn3)c3ccccc3C(=O)N2C)cc1OC (centres undefined) | inconclusive: 2.76% | –
CCOC(=O)C1OC1c1ccccc1 (centres undefined) | inconclusive: 4.92% | –
CC1(C)CC(=O)C(C=NCCCn2ccnc2)=C(O)C1 | inconclusive: 15.9% [at 7.6 µM] | –
C=CCN1C(=O)CN=C1Nc1cc(C)ccc1C | inconclusive: -3.74% | –
O=C(Oc1ccccc1)N1CCC2(CC1)CN(c1ncccn1)C2 | inactive: -6.8% | –
COc1ccc2c(=O)cc(-c3ccncc3)oc2c1OC | inactive: -16.2% [at 7.6 µM] | –
